These results are taken from the supplement of paper PMC3334620.

Over roughly 33,000 sequences, “E-score (-0.5 to 0.5)” has its median near -0.01; the highest 2% begin near 0.26. The list shows a part of the results.

This assay deals with Ste12 (UniProt P13574). The experiment in a line: PBM E-score (8-mer binding enrichment) (E-score (-0.5 to 0.5)); higher = stronger / more preferred TF binding; most listed sequences are background and not binding sites. To be noted: protein concentration: 200 nM; construct: GST-DNA-binding domain. The gist of the method:
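Each ungapped eight-base word and its reverse complement, pooled, received an E-score from the Universal PBM Analysis Suite. Underlying scans, normalised with masliner, recorded fluorescent anti-GST bound to GST-tagged yeast transcription factors. These were applied at about 100-200 nM to universal all-10-mer Agilent arrays double-stranded by primer extension.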
As for TCGATACA, the “PBM E-score” value amounted to 0.19.
Next, AAACTTAG: 0.156; ATCTGCCC: -0.153.
Turning to CGGAAAGC, the “PBM E-score” value was -0.00012.
With CATAGATA the figure was 0.0703.
With TTCGCGAA, the “PBM E-score” value turned out to be 0.222.
GGCGTACC: the “PBM E-score” value worked out at 0.0594.
Next, CCAAGTGA: 0.0804.
For ATCGCACC, the “PBM E-score” value is -0.0585.
As to AAGGTTCC, the “PBM E-score” value is -0.0602.
With GTTTTGAA the figure was 0.189.
Next, GGCGGTAA: 0.242.
In the case of ATTAGGAG, the “PBM E-score” value was determined as 0.144.
Next, CCGATAAC: 0.0848.
With ACAGTGAT the figure was 0.203.
Next, AATGCGGG: 0.17; ATGGAAGC: -0.06.
For the sequence CAGACATC, the “PBM E-score” value came out at 0.0108.
With ACGCTGCT the figure was -0.154; with GAACTAGA, 0.0752.
As for GGAGGAGA, the “PBM E-score” value was -0.156.
Next, CAAATTGC: 0.0765; CCTCCCAA: -0.136; CTTGAATA: 0.0442.
With ATGGTGAG the figure was -0.0881.
Next, GACCAGTC: -0.249; AGGACAGA: -0.107; GCTTCTAC: -0.114.
Turning to AGCAATGG, the “PBM E-score” value is -0.111.
As to CTCCGATA, the “PBM E-score” value is -0.139.
With AGTTGTAA the figure was 0.068.
With ATTTTATA, the “PBM E-score” value turned out to be 0.199.
Next, CCGGTGAC: -0.107; ACTAGCAC: -0.0863.
Next, ATTCCCAG: 0.149; CCTTCAAA: 0.107.
With AAGTAAAG the figure was -0.0589; with TAGGTAGA, 0.0365.
For TTGTCAAA, the “PBM E-score” value came out at 0.00505.
As to GTACTCAC, the “PBM E-score” value is -0.1.
Next, AACCGTCA: -0.098; CTGGCGAC: -0.182; AACCTTCG: -0.00825.
Consider CGTCTCTA, for which the “PBM E-score” value is -0.116.
With ATATGCTA the figure was 0.0341; with GCAAATAA, 0.146; with CCCACTGA, -0.12.
Next, CCACAGCC: -0.137; CCCAGTCC: -0.165; CACAAAGG: -0.0142.
With AGCAGACA the figure was -0.129; with ACGGACAT, -0.176.
For the sequence GGTCGCGA, the “PBM E-score” value stood at 0.117.
With AGGGTGCC the figure was -0.129; with ATAGTCAA, 0.0124.
With AATTCAAA the figure was 0.114.
Regarding ACCAAGGG, the “PBM E-score” value was determined as 0.0437.
For the sequence GGGTGTAA, the “PBM E-score” value was 0.0316.
With CCTCCTAG the figure was -0.0138; with AGGACTGG, -0.177.
Next, GTGACATA: 0.214.
With CTCCAGAG the figure was -0.117; with ACTACCGA, -0.175.
Regarding ATTCCGCG, the “PBM E-score” value amounted to 0.139.
With AATATGAA, the “PBM E-score” value came out at 0.269.
Next, CTGCCTGA: 0.124; AAGCCAGA: 0.00304.
For the sequence AACCTAAT, the “PBM E-score” value was -0.134.
With CAGCTCGG the figure was -0.168; with ACACGAAT, -0.0154.
Next, GTATCGGA: -0.0143; TCCACGCA: -0.0741.
Next, ACGTGACG: -0.00834; CTAGCAAC: -0.0574.
In the case of GGACGCAC, the “PBM E-score” value was -0.0385.
With GTAGAATA the figure was 0.249; with TAGATGGA, -0.0808; with GAGTCCGC, -0.0634.
With CACGGAAA the figure was 0.0417.
On to ATCACAAT, for which the “PBM E-score” value stood at 0.0426.
With GGTATAAC the figure was 0.0578; with ATCGGCGC, 0.00224; with ACGCCTCA, -0.0369.
Next, GCATTAAC: 0.125; AGGAAGAC: -0.0549.
For the sequence ACACGATG, the “PBM E-score” value was -0.198.
In the case of AGCTCCAC, the “PBM E-score” value is -0.176.
With AAATAAGG the figure was 0.148; with TAGCGACA, -0.0752.
Next, CACCAGAG: 0.108.
Next, AAGACGCA: -0.0206; AGTTTTAG: 0.12; GTTACTTA: 0.131.
On to GCGCCCGA, for which the “PBM E-score” value was 0.0411.
Next, ACCTAATA: 0.0933.
Next, ACAACTAA: 0.134.
Turning to ACTGACAA, the “PBM E-score” value was 0.0676.
Consider GCAAGTCA, for which the “PBM E-score” value was -0.13.
Next, GGACATGA: -0.0141; ATCCTAAA: 0.0644; ACATTTTC: 0.144.
Next, GACCTCCC: -0.0963; TAGGATAA: -0.0171.
Next, CGCTAACC: -0.0284.
ATCGTCAC: the “PBM E-score” value came out at 0.0116.
Turning to GTGCTTAA, the “PBM E-score” value came out at 0.0653.
With CCAGAAGG the figure was 0.00794.
Turning to TCATCGGA, the “PBM E-score” value is -0.0428.
Next, TCGGGGCA: -0.095.
